Assay results as given in PubChem BioAssay AID1347120 (National Center for Advancing Translational Sciences (NCATS), 2019).
Among all 390,000 compounds or so, about 930 (0.24%) were called active. Inconclusive results, whose numbers are uncertain, are shown with a selection of clear calls. The call rests on the fitted dose curve; in most records, active means well fitted activation curve with a large enough effect; inconclusive means small, poorly fitted or top-dose-only effect; inactive means no such curve, though single readings can be large or run the other way. A potency beside an inconclusive call is a rough fit, not a confirmed value.

assay: qHTS for Suppressors of FUS Proteinopathy: Primary screen using FUS-linked yeast assay; further: nearly all actives have a fitted effect of over 55% in size; conditions: S. cerevisiae FUS-expressing, OD600, 24 h; Potency: growth rescue; series mostly up to 76.6 µM
In short: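 S. cerevisiae expressing FUS from galactose induction served as the toxicity model. Growth after 24hr at 30C, read as absorbance at 600 nm, indicates suppression of toxicity; compounds dosed at several concentrations.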
Potency means the concentration at half of the fitted maximal effect; tags describe the fitted curve by direction and shape.

Structure (SMILES)	Potency
COc1ccc(CNC(=O)C[C@H]2C(=O)N(Cc3ccc(OC)cc3)C[C@@H]2Cc2ccccc2)cc1	inconclusive: 31.6 µM [activator, single point]
Cc1cccc2c(-c3ccccc3)cc(=O)[nH]c12	inactive
CCc1ccc2[nH]c(=O)c(C(c3nnnn3CC3CCCO3)N3CCN4CCCC4C3)cc2c1 (centres undefined)	inconclusive: 7.08 µM [activator, full curve]
CCOC(=O)C1CCCN(S(=O)(=O)c2ccc(C)cc2)C1 (centres undefined)	inactive
Cc1ccccc1-c1cc(C(=O)NCc2cccc(C(F)(F)F)c2)n(CC2CC(c3cccnc3)=NO2)n1 (centres undefined)	inconclusive: 31.6 µM [activator, partial curve, poor fit]
Nc1ccc(Nc2nc(-c3cc4ccccc4oc3=O)cs2)cc1	inconclusive: 50.1 µM [activator, single point]
COc1cc2c(cc1OC)CN(C(=O)/C=C/c1cc(OC)c(OC)c(OC)c1)CC2	inactive
O=C(CNc1cc(S(=O)(=O)N2CCOCC2)ccc1N1CCCC1)Nc1ccc(Cl)cc1	inconclusive: 50.1 µM [activator, single point]
Cc1nn(C)cc1/C=N\NC(=O)c1ccc2c(c1)c(C)c(C)n2Cc1ccccc1	inconclusive: 17.8 µM [activator, partial curve, poor fit]
COC(=O)C1CN(Cc2ccccc2)CCS(=O)(=O)N1Cc1cn(Cc2cccc(Cl)c2)nn1 (centres undefined)	inconclusive: 39.8 µM [activator, single point]
CCCCN(CCCC)CCC(O)c1cc2c(Cl)cc(Cl)cc2c2cc(C(F)(F)F)ccc12 (centres undefined)	inconclusive: 35.5 µM [activator, partial curve, poor fit]
O=C1NC[C@@H](CCCCN2C[C@H](Cc3ccccc3)N(CCC3CCCCC3)C(=O)C2=O)N(CCc2ccc(O)cc2)C1=O	inconclusive: 31.6 µM [activator, partial curve, poor fit]
Cc1cc(/C=N/NC(N)=O)c(C)n1C1CCCCC1	active: 22.4 µM
CCOCCCNC(=S)N1CCCN(c2nc3cc(C)c(C)cc3cc2C#N)CC1	inconclusive: 11.2 µM [activator, partial curve, poor fit]
COc1cccc(CN(C)C(=O)c2cccc(S(=O)(=O)N3CCN(c4ccccc4)CC3)c2)c1OC	inconclusive: 20 µM [activator, partial curve, poor fit]
[O-]/C(=C(\C(=S)Nc1cccc2ccccc12)[n+]1ccccc1)c1ccc2c(c1)OCCO2	inconclusive: 4.47 µM [activator, full curve, poor fit]
Nc1nnc(-c2ccccc2F)s1	inactive
Cc1ccc(-n2ncc3c(Nc4ccc(Oc5ccccc5)cc4)ncnc32)c(C)c1	inconclusive: 28.2 µM [activator, partial curve, poor fit]
COc1ccc(Cl)cc1NC(=O)CSc1nc(=O)n(Cc2ccco2)c2c1CCC2	inconclusive: 28.2 µM [activator, single point]
COc1cc(/C=N/N=C(/N)c2nonc2N)cc(Br)c1OCc1cccc(C)c1	inconclusive: 35.5 µM [activator, single point]

Structure (SMILES)	Potency
CCn1c(CNc2ccc(Cl)cc2)nnc1SCC(=O)OC1CCCCC1	inconclusive: 35.5 µM [activator, partial curve, poor fit]
C[C@@H]1CCC(=O)N(CC[C@H](Sc2ccccc2)c2ccccc2)CC1	inconclusive: 50.1 µM [activator, single point]
COc1cccc(C(=O)Nc2cc(NC(=O)c3cccs3)ccc2C)c1OC	inactive
CC(C)c1ccc2c(c1)NC(c1ccc(F)cc1)=NC(c1cccs1)=N2	inconclusive: 28.2 µM [activator, single point]
CCCCCCN1C[C@@H](n2cc(COC(=O)c3ccccc3)nn2)[C@H](O)C[C@@H]1c1ccc(Cl)cc1	inactive
Cc1ccc(C)n1-c1ccc(N2CCOCC2)cc1	inconclusive: 35.5 µM [activator, partial curve, poor fit]
COc1cccc(CNC(=O)N2CCc3c(sc4c3CCCC4)C2c2ccc(F)cc2)c1 (centres undefined)	inconclusive: 17.8 µM [activator, partial curve, poor fit]
CCCCNC(=S)N1CCn2cccc2C1c1ccc(F)cc1 (centres undefined)	inconclusive: 22.4 µM [activator, partial curve, poor fit]
CC(C)C[C@H](NC(=O)c1[nH]cnc1C(=O)Nc1ccccc1)C(=O)OC(C)(C)C	inactive
CCOc1ccc(CNC(=O)c2ccc3c(c2)c(C)c(C)n3C)cc1	inconclusive: 44.7 µM [activator, single point]
COc1cc(CNc2ncnc3c2ncn3[C@H]2CN(Cc3ccc(-c4ccccc4)cc3)C[C@@H](CO)O2)cc(OC)c1OC	inconclusive: 28.2 µM [activator, single point]
COc1cc(C2C(C(=O)/C=C/c3ccccc3)=C(O)C(=O)N2c2ccccn2)ccc1O (centres undefined)	inconclusive: 17.8 µM [activator, partial curve]
CC(=O)CC[C@H]1CC[C@]2(CCCN(C(=O)C(C)(C)C)C2)O1	inactive
CCCn1c2ccccc2c2cnn(CC(=O)NCC3CCN(Cc4ccc(C)cc4)CC3)c(=O)c21	inactive
CC1(C(=O)NS(=O)(=O)c2ccc3c(c2)CCO3)CCN1C(=O)c1ccccc1CCc1ccccc1 (centres undefined)	inconclusive: 39.8 µM [activator, single point]
C=CCNC(=O)N1CCCC(C(=O)c2cccc(OC(C)C)c2)C1 (centres undefined)	inactive
COC(=O)CCC(=O)N1C2=NC3=C(C(=O)N(Cc4ccc5c(c4)OCO5)C3=O)C3N(C)c4ccccc4[C@]23C[C@H]1CO (some centres undefined)	inconclusive: 20 µM [activator, partial curve, poor fit]
C[C@H](CO)N1C[C@H](C)[C@H](CN(C)S(=O)(=O)c2ccccc2)Oc2ccc(NC(=O)NC3CCCCC3)cc2CC1=O	active: 22.4 µM
COc1ccc(-n2c(Cc3cccn3C)nnc2SCC(=O)NCc2ccco2)cc1	inconclusive: 25.1 µM [activator, single point]
CCOC(=O)[C@@H]1[C@H]2COc3cc(OC)ccc3[C@H]2N2C(=O)N(c3ccc(Br)cc3)C(=O)[C@]12C	inconclusive: 28.2 µM [activator, single point]

Structure (SMILES)	Potency
CCc1ccc(NC(=O)CNC(=O)c2cn(-c3ccccc3OC)c(=O)c3ccccc23)cc1	inconclusive: 31.6 µM [activator, single point]
COc1ccc(C2=NS(=O)(=O)N(C)C(C(=O)Nc3ccc(C(C)=O)cc3)=C2)cc1OC	inactive
O=C(CSc1nc2ccccc2c(=O)[nH]1)Nc1ccc([N+](=O)[O-])cc1	inactive
CC1=C(c2ccc(C(C)C)cc2)S(=O)(=O)N=C1N1CCN(c2ccccc2F)CC1	inconclusive: 31.6 µM [activator, single point]
CCOc1ccccc1NC(=O)c1cc(-c2ccncc2)nc2c(Cl)cccc12	inconclusive: 31.6 µM [activator, partial curve, poor fit]
Cc1ccc(NC(=O)CSc2nc3ccccc3c(=O)n2CCCC(=O)N2CCCC2)cc1	inactive
CCN(CC)CCNC(=O)COc1ccc(Cl)cc1Cl	inactive
O=C(c1ccccc1)c1ccc(-c2ccccc2C(=O)NC2CCCCN(Cc3ccc(Cl)cc3)C2=O)cc1 (centres undefined)	inconclusive: 2.51 µM [activator, full curve, poor fit]
Cc1sc2nc(SCC(=O)c3ccc(O)c(O)c3)n(Cc3ccco3)c(=O)c2c1C	inconclusive: 7.08 µM [activator, partial curve, poor fit]
Cc1cccc(NS(=O)(=O)c2ccc(-c3cnc(C4CC4)o3)cc2)c1C	inconclusive: 28.2 µM [activator, single point]
CC(=O)N1CCN(c2ccc(NC(=O)c3ccc4c(c3)OCCO4)cc2Cl)CC1	inactive
CC(C)(C)C(=O)[C@@H]1[C@@H]2C(=O)N(c3ccc4c(c3)OCCO4)C(=O)[C@@H]2C2c3ccccc3C=CN21 (some centres undefined)	inconclusive: 50.1 µM [activator, partial curve, poor fit]
COC(=O)c1cc(S(=O)(=O)N2CCN(c3ccccc3Cl)CC2)cn1C	inconclusive: 39.8 µM [activator, single point]
Cc1cccc(N2CC(C(=O)Nc3nnc(SCCC4OCCO4)s3)CC2=O)c1 (centres undefined)	inconclusive: 8.91 µM [activator, partial curve, poor fit]
CCc1c(-c2ccccc2)nc2ccccc2c1C(=O)NC(C)c1ccccc1 (centres undefined)	inconclusive: 35.5 µM [activator, single point]
C=C[C@@H]1c2cccc(C)c2N(S(=O)(=O)c2ccc(C)cc2)[C@H](c2ccccc2)C1(C#N)S(=O)(=O)c1ccccc1 (some centres undefined)	inconclusive: 39.8 µM [activator, single point]
CN(C(=O)c1cccc(NC(=O)Cc2ccc(NC(=O)C3CCN(S(=O)(=O)c4cccc([N+](=O)[O-])c4)CC3)cc2)c1)C1CCCC1	inconclusive: 14.1 µM [activator, partial curve, poor fit]
COc1cc(OC)cc(-c2c(-c3cccs3)c3cc(-c4ccc(CN5CCOCC5)cc4)ccc3n2C)c1	inconclusive: 17.8 µM [activator, partial curve, poor fit]
COc1ccc(C(=O)NCCn2cc(SCC(=O)Nc3ccc4c(c3)OCCO4)c3ccccc32)cc1	inconclusive: 31.6 µM [activator, single point]
